Source: publication PMC9911399, “Two distinct binding modes provide the RNA-binding protein RbFox with extraordinary sequence specificity”
Changes are numbered by the printed parent chain; changes in the protein carry UniProt numbers. This is one part of the list.

B1: UCGUACU (DNA:RNA)
RNA: GGGAGACCGGAAUUCAGAUUGUCCUCGUACUUUAAAUCCCGUCGUAGCCACCA
DNA 1: CAATCTGAATTCCGGTCTCCC
DNA 2: TGGTGGCTACGACGGGATT
B2: ACAGCUU (DNA:RNA)
RNA: B1 RNA with U25A, G27A, U28G, A29C, C30U
DNA 1: CAATCTGAATTCCGGTCTCCC
DNA 2: TGGTGGCTACGACGGGATT
B3: AAAUUGU (DNA:RNA)
RNA: B1 RNA with U25A, C26A, G27A, A29U, C30G
DNA 1: CAATCTGAATTCCGGTCTCCC
DNA 2: TGGTGGCTACGACGGGATT
B4: GCUGUUA (DNA:RNA)
RNA: B1 RNA with U25G, G27U, U28G, A29U, C30U, U31A
DNA 1: CAATCTGAATTCCGGTCTCCC
DNA 2: TGGTGGCTACGACGGGATT
B5: GGCUAUC (DNA:RNA)
RNA: B1 RNA with U25G, C26G, G27C, C30U, U31C
DNA 1: CAATCTGAATTCCGGTCTCCC
DNA 2: TGGTGGCTACGACGGGATT
B6: UACCUAA (DNA:RNA)
RNA: B1 RNA with C26A, G27C, U28C, A29U, C30A, U31A
DNA 1: CAATCTGAATTCCGGTCTCCC
DNA 2: TGGTGGCTACGACGGGATT
B7: GGGUCCG (DNA:RNA)
RNA: B1 RNA with U25G, C26G, A29C, U31G
DNA 1: CAATCTGAATTCCGGTCTCCC
DNA 2: TGGTGGCTACGACGGGATT
B8: AUCGCUC (DNA:RNA)
RNA: GGGAGACCGGAAUUCAGAUUGUCCAUCGCUCUUAAAUCCCGUCGUAGCCACCA
DNA 1: CAATCTGAATTCCGGTCTCCC
DNA 2: TGGTGGCTACGACGGGATT
B9: GCGCUAG (DNA:RNA)
RNA: B1 RNA with U25G, U28C, A29U, C30A, U31G
DNA 1: CAATCTGAATTCCGGTCTCCC
DNA 2: TGGTGGCTACGACGGGATT
B10: UACAAGU (DNA:RNA)
RNA: B1 RNA with C26A, G27C, U28A, C30G
DNA 1: CAATCTGAATTCCGGTCTCCC
DNA 2: TGGTGGCTACGACGGGATT
B11: GAGAUAG (DNA:RNA)
RNA: B1 RNA with U25G, C26A, U28A, A29U, C30A, U31G
DNA 1: CAATCTGAATTCCGGTCTCCC
DNA 2: TGGTGGCTACGACGGGATT
B12: AGAACCG (DNA:RNA)
RNA: B8 RNA with U26G, C27A, G28A, U30C, C31G
DNA 1: CAATCTGAATTCCGGTCTCCC
DNA 2: TGGTGGCTACGACGGGATT
B13: GUCUGUU (DNA:RNA)
RNA: B8 RNA with A25G, G28U, C29G, C31U
DNA 1: CAATCTGAATTCCGGTCTCCC
DNA 2: TGGTGGCTACGACGGGATT
B14: CCCAAAG (DNA:RNA)
RNA: B1 RNA with U25C, G27C, U28A, C30A, U31G
DNA 1: CAATCTGAATTCCGGTCTCCC
DNA 2: TGGTGGCTACGACGGGATT
B15: UUUUACA (DNA:RNA)
RNA: B1 RNA with C26U, G27U, U31A
DNA 1: CAATCTGAATTCCGGTCTCCC
DNA 2: TGGTGGCTACGACGGGATT
B16: CCGGCUG (DNA:RNA)
RNA: B8 RNA with A25C, U26C, C27G, C31G
DNA 1: CAATCTGAATTCCGGTCTCCC
DNA 2: TGGTGGCTACGACGGGATT
B17: GAGGGGG (DNA:RNA)
RNA: B8 RNA with A25G, U26A, C27G, C29G, U30G, C31G
DNA 1: CAATCTGAATTCCGGTCTCCC
DNA 2: TGGTGGCTACGACGGGATT
B18: CAGCAGA (DNA:RNA)
RNA: B1 RNA with U25C, C26A, U28C, C30G, U31A
DNA 1: CAATCTGAATTCCGGTCTCCC
DNA 2: TGGTGGCTACGACGGGATT
B19: CUGAGAU (DNA:RNA)
RNA: B1 RNA with U25C, C26U, U28A, A29G, C30A
DNA 1: CAATCTGAATTCCGGTCTCCC
DNA 2: TGGTGGCTACGACGGGATT
B20: AGGAUUU (DNA:RNA)
RNA: B8 RNA with U26G, C27G, G28A, C29U, C31U
DNA 1: CAATCTGAATTCCGGTCTCCC
DNA 2: TGGTGGCTACGACGGGATT

These binders were tested against T1, RBFOX1 RRM (Homo sapiens, UniProt Q9NWB1 109-208) (assay: EMSA; HiTS-Eq, 1 nM pool, 10 min; buffer printed only for the single-RNA assays: 10 mM Tris pH 7.5, 150 mM NaCl, 3.4 mM EDTA, 0.001% NP-40, 30 C). Conditions: tags: His6 N-terminal (pET28a); label: 5' 32P.
T1 sequence: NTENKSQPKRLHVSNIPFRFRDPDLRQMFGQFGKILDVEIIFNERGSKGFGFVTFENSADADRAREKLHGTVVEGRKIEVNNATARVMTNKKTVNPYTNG
How it was run: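 Purified RbFox RRM, wild type or mutant, was incubated for 10 min in 50 µL with 1 nM of a 5′-radiolabelled RNA pool carrying 7 randomized nucleotides, whose flanks were annealed to DNA oligonucleotides, over a series of increasing protein concentrations. Unbound RNA was resolved on 8% native PAGE, cut out, reverse-transcribed, barcoded by PCR and sequenced on an Illumina HiSeq 2500. Relative association constants were derived from changes in read counts for each RNA species versus the control reaction and normalised to the cognate motif.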

Q: How did the binding signal turn out when B1 was run?
A: Its binding signal is 0.0101 KA relative to UGCAUGU.

Q: With B2 as the binder, how does the binding signal read?
A: The binding signal was 0.00515 KA relative to UGCAUGU.

Q: B3 was tested. Which binding signal did it give?
A: Its binding signal is 0.00588 KA relative to UGCAUGU.

Q: How did the binding signal turn out when B4 was run?
A: The binding signal was 0.0113 KA relative to UGCAUGU.

Q: How did the binding signal turn out when B5 was run?
A: Its binding signal is 0.00526 KA relative to UGCAUGU.

Q: B6 was tested. Which binding signal did it give?
A: The binding signal was 0.000874 KA relative to UGCAUGU.

Q: How did the binding signal turn out when B7 was run?
A: Its binding signal is 0.0257 KA relative to UGCAUGU.

Q: Which binding signal does the source give for B8 here?
A: The binding signal was 0.00655 KA relative to UGCAUGU.

Q: How did the binding signal turn out when B9 was run?
A: The binding signal was 0.0263 KA relative to UGCAUGU.

Q: For B10, which binding signal is on record?
A: The binding signal was 0.00644 KA relative to UGCAUGU.

Q: How did the binding signal turn out when B11 was run?
A: The binding signal was 0.0128 KA relative to UGCAUGU.

Q: With B12 as the binder, how does the binding signal read?
A: Its binding signal is 0.00181 KA relative to UGCAUGU.

Q: Which binding signal does the source give for B13 here?
A: Its binding signal is 0.0246 KA relative to UGCAUGU.

Q: B14 was tested. Which binding signal did it give?
A: The binding signal was 0.00837 KA relative to UGCAUGU.

Q: With B15 as the binder, how does the binding signal read?
A: Its binding signal is 0.00617 KA relative to UGCAUGU.

Q: Which binding signal does the source give for B16 here?
A: Its binding signal is 0.0202 KA relative to UGCAUGU.

Q: For B17, which binding signal is on record?
A: The binding signal was 0.0168 KA relative to UGCAUGU.

Q: How did the binding signal turn out when B18 was run?
A: Its binding signal is 0.00659 KA relative to UGCAUGU.

Q: For B19, which binding signal is on record?
A: Its binding signal is 0.0144 KA relative to UGCAUGU.

Q: How did the binding signal turn out when B20 was run?
A: Its binding signal is 0.0177 KA relative to UGCAUGU.
